The results in this text go back to patent publication US20120213758A1, “BIARYL PDE4 INHIBITORS FOR TREATING PULMONARY AND CARDIOVASCULAR DISORDERS” (DeCODE Genetics enf, priority 2007, published 2012).

The test system of this assay is sephadex bead stimulated LTE4 production in whole human blood. The following applies: 1.5 h, read-out: IC50, inhibition of Sephadex-stimulated LTE4 production.
As usually defined, the IC50 is the concentration at which inhibition is half-maximal. Turning to `COc1ccc(Cc2ccc(NS(N)(=O)=O)cc2)c(F)c1-c1cccc(Cl)c1` [Example A-008], the IC50 was < 1000 nM. With `COc1ccc(Cc2ccc(NS(N)(=O)=O)cc2)c(F)c1-c1cccc(C(C)=O)c1` [Example A-016], the IC50 is < 1000 nM. `COc1ccc(Cc2ccc(NC(=O)NCC(=O)O)nc2)c(F)c1-c1cccc(Cl)c1` [Example A-028]: the concentration for half-maximal inhibition (IC50) is > 1000 nM. Take `COc1ccc(Cc2ccc(NCC(=O)O)nc2)c(F)c1-c1cccc(Cl)c1` [Example A-035, [5-(3′-chloro-2-fluoro-6-methoxy-biphenyl-3-ylmethyl)-pyridin-2-ylamino]-acetic acid]: the IC50 is < 1000 nM.

`COc1ccc(Cc2ccc(N(CC(=O)O)C(C)=O)nc2)c(F)c1-c1cccc(Cl)c1` [Example A-037, {acetyl-[5-(3′-chloro-2-fluoro-6-methoxy-biphenyl-3-ylmethyl)-pyridin-2-yl]-amino}-acetic acid]: the IC50 was < 1000 nM. Consider `COc1ccc(Cc2ccc(N3CC[C@H]3C(=O)O)nc2)c(F)c1-c1cccc(Cl)c1` [Example A-066, (S)-1-[5-(3′-chloro-2-fluoro-6-methoxy-biphenyl-3-ylmethyl)-pyridin-2-yl]-azetidine-2-carboxylic acid], for which the half-maximal inhibitory concentration (IC50) is < 1000 nM.
